Positions count from the first letter of the chain named. No constants are given. Whether binding was seen depends on the method and setting. In cells and extracts the contact can be indirect. Some entries that bind do so weakly or less than the wild type. For part of these data: Sequences can lack the tags named with a protein. Values belong to the substance of their own block, whether it stands above or below them.
What was measured:
[1] = target: T1, GST-Pdcd4 (full-length human Pdcd4 fused to GST) (human) (UniProt Q53EL6); assay: pull-down; GST fusion proteins on glutathione sepharose, incubated with extract of transfected cells (QT6 fibroblasts) in ELB buffer, 1 h at 4 °C; western blotting against the Myc or Flag tag; only the target purified
T1 sequence: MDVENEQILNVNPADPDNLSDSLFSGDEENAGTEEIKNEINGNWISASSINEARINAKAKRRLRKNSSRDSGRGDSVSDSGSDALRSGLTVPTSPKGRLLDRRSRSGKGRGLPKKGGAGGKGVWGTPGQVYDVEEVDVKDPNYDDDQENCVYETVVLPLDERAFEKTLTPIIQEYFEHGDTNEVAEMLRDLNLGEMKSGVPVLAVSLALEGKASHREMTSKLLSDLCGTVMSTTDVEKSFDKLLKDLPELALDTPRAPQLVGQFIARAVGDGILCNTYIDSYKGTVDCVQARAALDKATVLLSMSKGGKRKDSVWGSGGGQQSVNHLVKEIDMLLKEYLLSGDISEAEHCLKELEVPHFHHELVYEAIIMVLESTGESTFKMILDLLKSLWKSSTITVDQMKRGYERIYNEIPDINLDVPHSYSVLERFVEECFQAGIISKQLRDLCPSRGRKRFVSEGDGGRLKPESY

Sequences of proteins named here, by UniProt entry; tags and fusion partners are left off.
UniProt P11940: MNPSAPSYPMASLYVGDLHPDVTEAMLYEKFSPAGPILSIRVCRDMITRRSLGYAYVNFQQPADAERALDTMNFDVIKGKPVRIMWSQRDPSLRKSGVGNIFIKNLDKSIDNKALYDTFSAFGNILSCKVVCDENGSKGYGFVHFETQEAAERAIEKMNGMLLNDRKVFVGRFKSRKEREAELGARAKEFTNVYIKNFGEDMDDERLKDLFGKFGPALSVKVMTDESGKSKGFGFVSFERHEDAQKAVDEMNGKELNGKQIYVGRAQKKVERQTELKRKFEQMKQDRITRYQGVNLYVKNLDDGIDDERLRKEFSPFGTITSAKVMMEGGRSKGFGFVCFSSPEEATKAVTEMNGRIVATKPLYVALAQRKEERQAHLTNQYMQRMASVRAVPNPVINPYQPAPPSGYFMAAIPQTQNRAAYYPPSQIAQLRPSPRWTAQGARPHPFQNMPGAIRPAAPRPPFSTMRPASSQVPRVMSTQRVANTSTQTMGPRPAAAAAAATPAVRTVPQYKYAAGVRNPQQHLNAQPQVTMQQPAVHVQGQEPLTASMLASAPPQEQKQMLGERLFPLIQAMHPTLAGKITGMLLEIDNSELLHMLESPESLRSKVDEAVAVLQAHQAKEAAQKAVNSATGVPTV
UniProt P06730: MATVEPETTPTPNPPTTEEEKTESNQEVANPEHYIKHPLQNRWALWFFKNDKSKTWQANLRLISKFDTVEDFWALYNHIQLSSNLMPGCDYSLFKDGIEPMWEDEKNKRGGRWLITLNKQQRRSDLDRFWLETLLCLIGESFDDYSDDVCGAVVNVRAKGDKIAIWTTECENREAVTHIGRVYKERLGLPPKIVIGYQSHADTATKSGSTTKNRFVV

GST-Pdcd4 ΔRBD (human) = target: T2, GST-Pdcd4 ΔRBD (human) (UniProt Q53EL6); assay: as above
T2 sequence: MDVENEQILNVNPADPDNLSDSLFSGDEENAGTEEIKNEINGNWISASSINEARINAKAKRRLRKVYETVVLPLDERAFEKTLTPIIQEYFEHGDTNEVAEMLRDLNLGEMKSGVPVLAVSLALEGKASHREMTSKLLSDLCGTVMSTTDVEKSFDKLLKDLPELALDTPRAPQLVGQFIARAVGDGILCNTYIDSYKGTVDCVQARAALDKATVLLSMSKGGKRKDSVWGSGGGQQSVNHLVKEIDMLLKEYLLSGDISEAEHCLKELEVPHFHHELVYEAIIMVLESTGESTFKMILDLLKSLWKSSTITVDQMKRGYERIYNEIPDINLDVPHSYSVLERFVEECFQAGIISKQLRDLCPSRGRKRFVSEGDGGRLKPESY

[2] = target: T3, GST-Pdcd4-K114A/K115A (human) (UniProt Q53EL6); assay: as above
T3 sequence: T1 sequence with K114A, K115A

[3] = target: T4, GST-Pdcd4-RBDstop (only the N-terminal RNA-binding domain of human Pdcd4) (human) (UniProt Q53EL6); assay: as above
T4 sequence: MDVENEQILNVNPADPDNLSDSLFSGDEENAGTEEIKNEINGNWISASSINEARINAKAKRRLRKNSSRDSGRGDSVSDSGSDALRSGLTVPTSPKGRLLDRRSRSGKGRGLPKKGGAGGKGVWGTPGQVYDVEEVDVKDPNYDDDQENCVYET

[4] = target: T5, GST-Pdcd4-V123A/W124A (human) (UniProt Q53EL6); assay: as above
T5 sequence: T1 sequence with V123A, W124A

GST-Pdcd4-mut4 (human) [5] = target: T6, GST-Pdcd4-mut4 (human) (UniProt Q53EL6); assay: pull-down; data not shown: GST-Pdcd4-mut4 with cell extract, binding of eIF4G and eIF4E; only the target purified
T6 sequence: T1 sequence with E249A, D253A, D414A, D418A

[6] = target: T7, Pdcd4 (endogenous, HEK293 cell extract) (human (endogenous in HEK293)) (UniProt Q53EL6); assay: co-IP; extract of untransfected HEK293 cells precipitated with rabbit antiserum against Pdcd4 or pre-immune serum; western blotting for PABP
T7 sequence: T1 sequence

[7] = target: T1, GST-Pdcd4 (full-length human Pdcd4 fused to GST) (human); assay: pull-down; GST proteins immobilised on glutathione sepharose, incubated with HEK293 cell extract (endogenous proteins), 1 h at 4 °C, ELB buffer; western blotting; also done in the absence or presence of 0.5 μg/ml RNase A; only the target purified
GST-Pdcd4-mut4 (human) [8] = target: T6, GST-Pdcd4-mut4 (human); assay: as above

Substance: Myc-tagged human PABP (from UniProt P11940 1-636)
- binding [1]: binds
- binding (GST-Pdcd4 ΔRBD (human)): no binding
- binding [2]: no binding
- binding [3]: binds
- binding [4]: no binding

- binding (GST-Pdcd4-mut4 (human) [5]): binds
Substance: eIF4E (endogenous, HEK293 cell extract) (from UniProt P06730 1-217)

- binding [6]: binds
- binding [7]: binds
- binding (GST-Pdcd4-mut4 (human) [8]): binds
Substance: poly(A)-binding protein (PABP), endogenous, HEK293 cell extract (from UniProt P11940 1-636)

Reference: paper PMC4176178
